Measurements published in PMC6286407.
Results are given in words; binding and its absence hold for the method and conditions named. For some assays here: In cells and extracts the contact can be indirect. Some results given as binding are weak or reduced against the parent protein; the word gives no strength. For some assays here: Tags and fused reporters may be left off the sequences shown. Values belong to the binder of their own block, whether it stands above or below them.

What was measured:
[1] = biological target: CC2D1B (residues 317–558) (human) (UniProt Q5T0F9); experiment: sucrose gradient centrifugation; sucrose step gradient 60-5% in HBS (0.01 M Hepes pH 7.4, 0.15 M NaCl), SW55 rotor 40,000 rpm 6 h 4°C; fractions on SDS-PAGE, Coomassie; top fractions monomers, bottom fraction polymers; with or without TEV cleavage and CC2D1B (residues 317-558); both purified
CHMP4B-L-GFP = biological target: T1, CHMP4B-L-GFP (UniProt Q9H444); experiment: co-IP; GFP-Trap magnetic microparticles, 2 h, clarified lysates of HCT116 cells stably expressing CHMP4B-L-GFP or CHMP2A-L-GFP; same lysis buffer as the GST pull-downs; western blot for endogenous CC2D1B
T1 sequence: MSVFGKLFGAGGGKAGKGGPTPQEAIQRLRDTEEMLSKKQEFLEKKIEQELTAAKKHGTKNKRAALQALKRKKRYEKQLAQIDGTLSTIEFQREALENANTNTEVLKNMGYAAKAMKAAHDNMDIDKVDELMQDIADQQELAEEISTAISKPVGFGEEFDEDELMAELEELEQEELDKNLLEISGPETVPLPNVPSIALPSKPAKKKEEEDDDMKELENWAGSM

binding [1]: no binding
B1: CC2D1B (residues 317–558) (domain or fragment, UniProt Q5T0F9 317-558)
chain: GAVLEALEKGQPVDLSAMPPAPEDLKPQQASQAPTAPSVIPPAVERVQPVMAPDVPATPVAPTESQTVLDALQQRLNKYREAGIQARSGGDERKARMHERIAKQYQDAIRAHRAGRKVNFAELPVPPGFPPIPGLESTMGVEEDAVAATLAAAEKLASAEDSAPADKDEDEPPGHLQGEPPAQAPVAKKPARPTVPSSQRLPEPRASSSKESPSPSVREQLALLEARKLQYQRAALQAKRSQ

binding (CHMP4B-L-GFP): binds
B2: endogenous CC2D1B (protein, UniProt Q5T0F9 1-858)
chain: MMPGPRPRKGPQARGQGVAAAKQMGLFMEFGPEDMLLGMDEAEDDEDLEAELLALTGEAQTTGKKPAPKGQAPLPMAHIEKLAADCMRDVEEEEEEEGLEEDAELLTELQEVLGVDEETEPLDGDEVADPGGSEEENGLEDTEPPVQTAVLTASAPAAQAGASQGLHALLEERIHNYREAAASAKEAGEAAKARRCERGLKTLESQLASVRRGRKINEDEIPPPVALGKRPLAPQEPANRSPETDPPAPPALESDNPSQPETSLPGISAQPVSDLDPDPRALLSSRQREYKVAALSAKRAGELDRARELMRIGKRFGAVLEALEKGQPVDLSAMPPAPEDLKPQQASQAPTAPSVIPPAVERVQPVMAPDVPATPVAPTESQTVLDALQQRLNKYREAGIQARSGGDERKARMHERIAKQYQDAIRAHRAGRKVNFAELPVPPGFPPIPGLESTMGVEEDAVAATLAAAEKLASAEDSAPADKDEDEPPGHLQGEPPAQAPVAKKPARPTVPSSQRLPEPRASSSKESPSPSVREQLALLEARKLQYQRAALQAKRSQDLEQAKAYLRVAKWLEAQIIQARSGRPVDLSKVPSPLTDEEGDFILIHHEDLRLSQKAEEVYAQLQKMLLEQQEKCLLFSKQFMHQGNVAETTRFEKLAQDRKKQLEILQLAQAQGLDPPTHHFELKTFQTVRIFSELNSTEMHLIIVRGMNLPAPPGVTPDDLDAFVRFEFHYPNSDQAQKSKTAVVKNTNSPEFDQLFKLNINRNHRGFKRVIQSKGIKFEIFHKGSFFRSDKLVGTAHLKLERLENECEIREIVEVLDGRKPTGGKLEVKVRLREPLSGQDVQMVTENWLVLEPRGL
